Columns and labels:
HepG2 (GPC3+) [1] = experiment: In vitro proliferation inhibition test of DB1001 and DB1001-X1, CTG method (4.1); format: cell-based, human
Experimental: (§1) The CellTiter-Glo® luminescent cell viability assay (CTG method) was used to evaluate the inhibitory effect of anti-GPC3 naked antibody DB1001 and anti-GPC3 ADC DB1001-X1 on the proliferation of GPC3-positive expression human liver cancer cells HepG2 and Huh7 after 7 days of treatment.
(§2) Cells in the logarithmic growth phase were collected and plated at a density of 4000 cells/well (HepG2 cells) or 6000 cells/well (Huh7 cells). The cell plate was placed in a 37° C., 5% CO2 incubator and cultured overnight. On the second day of the experiment, DB1001 and DB1001-X1 were diluted with a complete medium in a 3-fold serial dilution to obtain 9 concentration gradients, starting with a maximum concentration of 300 nM. The obtained solutions were added to the cell culture plate at 50 μL/well with a complete medium used as a blank control, and 3 replicate wells were set up. The plate was incubated for another 7 days in a 37° C., 5% CO2 incubator. At the end of the incubation, the cell culture plate was taken out and equilibrated to room temperature. 50 μL of CTG detection reagent (Promega, Cat #: G7573) was added to each well, and the mixture was shaken and mixed well. After the mixture was allowed to stand for 10 minutes, the luminescence signal was detected and read using a microplate reader. GraphPad Prism software was used to plot the S-shaped dose-response curve using a nonlinear regression model, and the IC50 values were calculated. The cell viability was calculated using the formula: cell viability=(Lumtest compound−Lumblank control)/(Lumvehicle control−Lumblank control)×100% The experimental results are shown in the table below: […]

Huh7 (GPC3+) [2] = experiment: as above; format: cell-based, human
Experimental: as §1, §2

Huh7 tumor-bearing mice [3] = experiment: Efficacy evaluation in Huh7 tumor-bearing mice (5.2); format: in vivo, BALB/c nude mice; conditions: for D 14 TGI %: day 14; for D 17 TGI %: day 17; for D 21 TGI %: day 21
Experimental: (§3) To study the inhibitory effect of DB1001-X1 on tumor formation in vivo, the antitumor effect of DB1001-X1 was evaluated after xenograft tumors were formed in mice with GPC3-positive expression human liver cancer cells HepG2 or Huh7.
(§4) Blank control group (control group): normal saline
DB1001-X1 (treatment group): 3 mg/kg
(§5) DB1001-X1 (treatment group): 10 mg/kg
(§6) 2. Preparation method: All samples were diluted and prepared with normal saline.
(§7) 3. Test animals: Female BALB/c mice, 8 weeks old, purchased from GemPharmatech Co., Ltd.
(§8) 5×10^6 Huh7 cells were subcutaneously inoculated into the right anterior scapula of 8-week-old female BALB/c nude mice. When the tumor grew to approximately 130 mm^3, the tumor-bearing mice were randomly grouped using StudyDirector™ software, and on the same day (Day 0), DB1001-X1 (3 mg/kg) and DB1001-X1 (10 mg/kg) were administered via intravenous injection (i.v.) once. The experiment was terminated after 21 days of administration. Tumor volume and body weight were measured twice weekly, and data were recorded.
(§9) Six mice were included in each group (vehicle control group or treatment group). Tumor growth inhibition rate (TGI %) was calculated by measuring tumor volume.

HepG2 (GPC3+) [4] = experiment: In vitro proliferation inhibition test of DB1001-X1 and DB1001-X2, CTG method (4.2); format: cell-based, human; conditions: for proliferation inhibitory activity (in words): HepG2, conclusion to Table 5; for IC50: Table 5, HepG2 (GPC3+), 6 days of treatment, read-out: Cell killing IC50
Experimental: as §2, with “5000” for “4000”, “5000” for “6000”, “On the second day of the experiment, DB1001 and DB1001-X1 were diluted with a complete medium in a 3-fold serial dilution to obtain 9 concentration gradients, starting with a maximum concentration of 300 nM.” left out

Huh7 (GPC3+) [5] = experiment: as above; format: cell-based, human; conditions: for proliferation inhibitory activity (in words): Huh7, conclusion to Table 5; for IC50: Table 5, Huh7 (GPC3+), 6 days of treatment, read-out: Cell killing IC50
Experimental: as §2, with “5000” for “4000”, “5000” for “6000”, “On the second day of the experiment, DB1001 and DB1001-X1 were diluted with a complete medium in a 3-fold serial dilution to obtain 9 concentration gradients, starting with a maximum concentration of 300 nM.” left out

HepG2 tumor-bearing mice [6] = experiment: Efficacy evaluation in HepG2 tumor-bearing mice (5.1); format: in vivo, BALB/c nude mice
Experimental: as §3, §4, §5
DB1001 (treatment group): 10 mg/kg
as §6, §7
as §8, with “1×10^7 HepG2” for “5×10^6 Huh7”, “110” for “130”, “DB1001” for “DB1001-X1 (3 mg/kg)”, “DB1001-X1” for “DB1001-X1 (10 mg/kg)”
as §9

HepG2 tumor-bearing mice [7] = experiment: Efficacy evaluation in HepG2 tumor-bearing mice (5.3); format: in vivo, BALB/c nude mice
Experimental: as §4
(§10) DB1001-Deruxtecan (treatment group): 1 mg/kg
(§11) DB1001-Deruxtecan (treatment group): 3 mg/kg
(§12) (2) Preparation method: All samples were diluted and prepared with normal saline.
(3) Test animals: Female BALB/c mice, 8 weeks old, purchased from GemPharmatech Co., Ltd.
1×10^7 HepG2 cells were subcutaneously inoculated into the right anterior scapula of 8-week-old female BALB/c nude mice. […] The experiment was terminated after 21 days of administration. Tumor volume and body weight were measured twice weekly, and data were recorded.
(§13) Tumor growth inhibition rate (TGI %) was calculated by measuring tumor volume.

Huh7 tumor-bearing mice [8] = experiment: Efficacy evaluation in Huh7 tumor-bearing mice (5.4); format: in vivo, BALB/c nude mice
Experimental: as §4, §10, §11, §12
(3) Test animals: Female BALB/c naked mice, 8 weeks old, purchased from GemPharmatech Co., Ltd.
5×10^6 Huh7 cells were subcutaneously inoculated into the right anterior scapula of 8-week-old female BALB/c nude mice. […] The experiment was terminated after 21 days of administration. Tumor volume and body weight were measured twice weekly, and data were recorded.
as §13

B1: DB1001-X1: anti-GPC3 antibody DB1001 conjugated with linker-payload X1, DAR 7.51 (conjugate)
heavy: QVQLVESGGGVVQPGRSLRLSCAASGFTFRSFGMHWVRQAPGKGLEWVAVISYDASNEYYADSVKGRFIISRDNSKDTLYLQMNSLRAGDTAVYYCAKGGALRWYFAYWGQGTLVTVSS[human IgG1 constant region left out]
light: EIVMTQSPATLSVSPGERATLSCRASQSISSNLGWYQQKPGQAPRLLIYGASTRATGIPARFSGSGSGTEFTLTISSLQSEDFAVYYCQQYRSWPPLTFGGGTKVEIKRTVAAPSVFIFPPSDEQLKSGTASVVCLLNNFYPREAKVQWKVDNALQSGNSQESVTEQDSKDSTYSLSSTLTLSKADYEKHKVYACEVTHQGLSSPVTKSFNRGEC
- proliferation inhibitory activity (in words) (HepG2 (GPC3+) [1]; HepG2, conclusion to Table 4): significant proliferation inhibitory activity
- IC50 (HepG2 (GPC3+) [1]; Table 4, HepG2 (GPC3+), 7 days of treatment, read-out: Cell killing IC50): 2.63 nM
- proliferation inhibitory activity (in words) (Huh7 (GPC3+) [2]; Huh7, conclusion to Table 4): significant proliferation inhibitory activity
- IC50 (Huh7 (GPC3+) [2]; Table 4, Huh7 (GPC3+), 7 days of treatment, read-out: Cell killing IC50): 0.65 nM
- D 14 TGI % (Huh7 tumor-bearing mice [3]; Huh7, 3 mpk i.v. once): 63.83%
- D 17 TGI % (Huh7 tumor-bearing mice [3]; Huh7, 3 mpk i.v. once): 63.59%
- D 21 TGI % (Huh7 tumor-bearing mice [3]; Huh7, 3 mpk i.v. once): 59.76%
- D 14 TGI % (Huh7 tumor-bearing mice [3]; Huh7, 10 mpk i.v. once): 97.09%
- D 17 TGI % (Huh7 tumor-bearing mice [3]; Huh7, 10 mpk i.v. once): 94.70%
- D 21 TGI % (Huh7 tumor-bearing mice [3]; Huh7, 10 mpk i.v. once): 89.94%
- tumor inhibitory activity (in words) (Huh7 tumor-bearing mice [3]; Huh7, after a single administration, 3 and 10 mg/kg): significant dose-dependent tumor inhibitory activity
- proliferation inhibitory activity (in words) (HepG2 (GPC3+) [4]): significantly enhanced proliferation inhibitory activity
- IC50 (HepG2 (GPC3+) [4]): 8.37 nM
- proliferation inhibitory activity (in words) (Huh7 (GPC3+) [5]): significantly enhanced proliferation inhibitory activity
- IC50 (Huh7 (GPC3+) [5]): 4.29 nM
- D 13 TGI % (HepG2 tumor-bearing mice [6]; HepG2, 10 mg/kg i.v. once, day 13): 98.90%
- D 16 TGI % (HepG2 tumor-bearing mice [6]; HepG2, 10 mg/kg i.v. once, day 16): 94.97%
- D 20 TGI % (HepG2 tumor-bearing mice [6]; HepG2, 10 mg/kg i.v. once, day 20): 86.44%
- tumor inhibition effect (in words) (HepG2 tumor-bearing mice [6]; HepG2, after a single administration, 10 mg/kg): significantly enhanced antitumor activity

B2: DB1001-X2: anti-GPC3 antibody DB1001 conjugated with linker-payload X2, DAR 7.72 (conjugate)
heavy: B1 heavy
light: B1 light
- proliferation inhibitory activity (in words) (HepG2 (GPC3+) [4]): significantly enhanced proliferation inhibitory activity
- IC50 (HepG2 (GPC3+) [4]): 7.02 nM
- proliferation inhibitory activity (in words) (Huh7 (GPC3+) [5]): significantly enhanced proliferation inhibitory activity
- IC50 (Huh7 (GPC3+) [5]): 3.91 nM
- TGI % (HepG2 tumor-bearing mice [7]; HepG2, 1 mpk i.v. once): ++ (60 ≤ TGI % < 75%)
- TGI % (HepG2 tumor-bearing mice [7]; HepG2, 3 mpk i.v. once): +++ (TGI % ≥ 80%)
- TGI % (Huh7 tumor-bearing mice [8]; Huh7, 1 mpk i.v. once): ++ (60 ≤ TGI % < 75%)
- TGI % (Huh7 tumor-bearing mice [8]; Huh7, 3 mpk i.v. once): +++ (TGI % ≥ 80%)

— patent US20250195681A1, “ANTI-GPC3 ANTIBODY DRUG CONJUGATE AND USE THEREOF” (DUALITY BIOLOGICS (SUZHOU) CO., LTD., priority 2022, published 2025)
